About 7,700 (2.3%) of roughly 330,000 compounds were called active. Inconclusive results (about 26%) are left out. Calls follow the shape of the dose curve; as a rule, active = well fitted inhibition curve with a large enough effect; inconclusive = small, poorly fitted or top-dose-only effect, or effect the other way; inactive = flat fitted curve, though single readings scatter. The list shows a part of the results, in another mix than the full data.
Assay: qHTS screen for small molecules that inhibit ELG1-dependent DNA repair in human embryonic kidney (HEK293T) cells expressing luciferase-tagged ELG1; also: nearly all actives have a fitted effect of over 55% in size
Conditions: HEK293T ELG1-luciferase reporter, luminescence, 16 h, DNA damage induced by 5-fluorouridine; series mostly up to 46.1 µM; activity change, negative = inhibition: at the top concentration
Description: NIH Molecular Libraries Probe Production Network [MLPCN] NIH Chemical Genomics Center [NCGC] MLPCN Grant: 1 R03 MH092164-01 Assay Provider: Kyungjae Myung, NHGRI, NIH Keywords: MLPCN, qHTS, NCGC, genotoxicity, cancer Assay Overview: Cancer cells divide rapidly compared to normal cells in the body. During cell division, cancer cells need to duplicate their genome by DNA replication. The failure of genome duplication leads to cancer cells' death. Therefore, inhibitors of DNA replication could specifically kill cancer cells. Based on this concept, many chemotherapeutic agents were developed and have been used to treat cancer patients. However, there are a limited number of agents available in the clinical setting, and some of those that do exist have low efficacy and severe side effects. Therefore, if we can find the compounds that effectively block DNA replication either by directly damaging DNA or by inhibiting other cellular mechanisms, the options for cancer treatment will be broadened. With this in mind, we developed a quantitative high-throughput ELG1-luciferase reporter gene assay. Small molecules that specifically block ELG1 function in response to DNA damage can be identified by monitoring the suppression of luciferase activity. Since ELG1 defines a pathway for repairing DNA damage, agents blocking ELG1 function can be used to sensitize cancer cells to chemotherapeutic agents whose mechanism of action involves the induction of DNA damage.
Assay Protocol Summary: For genotoxicity screening, 2,000 cells in 4 uL/well were dispensed into white, solid-bottom 1536-well plates using a solenoid-based dispenser. Following transfer of 1 uL 5-Fluorouridine and 23 nL compound or DMSO vehicle by a pin tool, the plates were incubated 16 hr at 37 °C and 5% CO2. 5 ul ONE-Glo (Promega) was then added to each plate and following a 30 min incubation at room temperature, luciferase activity was quantified on a ViewLux CCD-based plate reader.
% is scaled to controls: 0 for no effect and ±100 for the full control effect; potency is read from the fitted curve at half-maximal effect.

Compound	activity change, negative = inhibition	Potency
COC1=CC2C3Cc4ccc(OC)c(O)c4C2(CCN3C)CC1=O (centres undefined)	inactive: 10.3%	
C[C@]12CCC3C(CC[C@H]4C[C@H](O)CC[C@]34C)C1C[C@@H](O)[C@@H]2O (some centres undefined)	inactive: 0%	
CCSc1nnc(C(N)Cc2ccccc2)o1 (centres undefined)	inactive: 0.167%	
c1cc2c(cc1[C@H]1OC[C@H]3[C@@H]1CO[C@@H]3c1ccc3c(c1)OCO3)OCO2	inactive: -9.44%	
COc1ccc(CN2C(=O)NC(=O)/C(=C\c3ccc(OC)c(OC)c3OC)C2=O)cc1	inactive: 15.8%	
O=C(CCCCCCCCCCC(=O)NCc1cccnc1)NCc1cccnc1		active: 3.66 µM
COC(=O)c1nc(-c2ccc3c(n2)C(=O)C(N)=C(OC)C3=O)c(N)c(-c2ccc(OC)c(OC)c2O)c1C		active: 2.06 µM
C[C@]12CCC3C(CC[C@H]4C[C@@H](O)CC[C@]34C)C1C[C@@H](Br)[C@H]2O (some centres undefined)	inactive: -3.08%	
O=C1NCCOC(=O)[C@@H](Cc2ccc(F)cc2)CC/C=C/C[C@@H]1CC(=O)N(CCO)Cc1ccccc1	inactive: -22.3%	
C=CCN1C(=O)/C(=C/c2ccc(N3CCOCC3)o2)C(=O)NC1=S	inactive: 6.87%	
C=CC[C@@H](CC(=O)N[C@@H](CO)Cc1ccccc1)C(=O)NCCOC(=O)[C@@H](CC=C)Cc1ccc(F)cc1	inactive: -0.0548%	
Cc1ccccc1-n1c(O)c(/C=N/c2nccs2)c(=O)[nH]c1=O	inactive: -12.5%	
C[C@]12CCC3C(CC[C@H]4C[C@@H](O)CC[C@]34C)C1C[C@@H](Br)[C@@H]2O (some centres undefined)	inactive: 24.5%	
CN(C)[C@@H]1C(=O)C(C(N)=O)=C(O)[C@@]2(O)C(=O)C3=C(O)c4c(O)cccc4[C@@](C)(O)[C@H]3[C@H](O)[C@@H]12		inactive
COc1ccc2c(c1OC)C(=O)O[C@H]2[C@@H]1c2cc3c(cc2CCN1C)OCO3	inactive: -6.06%	
COC(=O)[C@H]1C[C@@H]1[C@H](NP(=O)(c1ccccc1)c1ccccc1)c1ccccc1	inactive: 13.3%	
COc1cc2c(cc1O)CC1c3c(cc(O)c(OC)c3-2)CCN1C (centres undefined)	inactive: -50.1%	
CC(=O)OC1C2CCCC1C(N1CCCC1)CC2 (centres undefined)	inactive: 9.49%	
COC(=O)C1C(OC(=O)c2ccccc2)CC2CCC1N2C (centres undefined)	inactive: -12.5%	
COc1ccc2c(c1OC)C(=O)O[C@@H]2[C@H]1c2cc3c(cc2CCN1C)OCO3	inactive: 8.48%	
Cc1ccc(/C=C2/C(=O)NC(=O)N(CCc3ccc(F)cc3)C2=O)o1	inactive: -1.54%	
C[C@]12CCC3C(CC[C@H]4C[C@H](O)CC[C@]34C)C1C[C@H](O)[C@@H]2O (some centres undefined)	inactive: -22.5%	
ClC1C(Cl)C(Cl)C(Cl)C(Cl)C1Cl (centres undefined)	inactive: 5.52%	
COc1ccc(CN2C(=O)NC(=O)/C(=C/c3cc(OC)c(OC)c(OC)c3)C2=O)cc1	inactive: 16.4%	

— PubChem BioAssay AID504467 (National Center for Advancing Translational Sciences (NCATS), 2011)
